According to the supplement of paper PMC4604168 (melanoma cell lines):
This is one part of the list. Single values are uncertain, as repeats are few or missing.

tested on: IPC-298; experiment: cell count relative to DMSO control; melanoma cells; higher = more viable cells; conditions: library dose: low library concentration; 72 h
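Also: cell number obtained by counting DAPI-stained nuclei in high-throughput microscope images with image analysis software, screen run in 1,536-well plates.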

Row | Compound | cell count
1 | NC1(c2ccc(-c3nc4ccn5c(=O)[nH]nc5c4cc3-c3ccccc3)cc2)CCC1 + C[As](C)SC[C@H](NC(=O)CC[C@H](N)C(=O)O)C(=O)NCC(=O)O [Darinaparsin] (first compound 0.4 µM, partner dose 0.4 µM) | 97.2%
2 | COc1ccc(-c2ccc3c(N4CCOCC4)nc(N4C[C@@H](C)O[C@@H](C)C4)nc3n2)cc1CO + O=C(Oc1ccc([N+](=O)[O-])cc1)N1CCC(C(O)(c2ccc3c(c2)OCO3)c2ccc3c(c2)OCO3)CC1 [JZL184] (first compound 0.02 µM, partner dose 1 µM) | 107%
3 | Cc1ccc(NC(=O)c2cccc(N(C)C)c2)cc1NC(=O)c1ccc(O)cc1 + O=C(Oc1ccc([N+](=O)[O-])cc1)N1CCC(C(O)(c2ccc3c(c2)OCO3)c2ccc3c(c2)OCO3)CC1 [JZL184] (first compound 2 µM, partner dose 1 µM) | 78.3%
4 | Cn1sc(=O)n(Cc2ccccc2)c1=O + C[C@]12O[C@H](C[C@]1(O)CO)n1c3ccccc3c3c4c(c5c6ccccc6n2c5c31)CNC4=O [Lestaurtinib] (first compound 0.4 µM, partner dose 0.004 µM) | 99.8%
5 | Cc1cc(SCc2sc(-c3ccc(C(F)(F)F)c(F)c3)nc2C)ccc1OCC(=O)O + Oc1cc(-c2nc(-c3ccccc3)[nH]c2-c2ccncc2)ccc1Cl [L779450] (first compound 2 µM, partner dose 0.2 µM) | 85.6%
6 | O=S(=O)(c1ccccc1)N(CC(F)(F)F)c1ccc(C(O)(C(F)(F)F)C(F)(F)F)cc1 + Cc1cc(SCc2sc(-c3ccc(C(F)(F)F)c(F)c3)nc2C)ccc1OCC(=O)O [GW0742] (first compound 1.4 µM, partner dose 2 µM) | 90.2%
